Experimental data as given in PubChem BioAssay AID493208 (National Center for Advancing Translational Sciences (NCATS), 2011).
Out of some 44,000 compounds screened, about 340 (0.77%) were called active. The shares of active, inactive and inconclusive entries below differ from those in the screen. Calls follow the shape of the dose curve; as a rule, active = well fitted inhibition curve with a large enough effect; inconclusive = small, poorly fitted or top-dose-only effect; inactive = flat fitted curve, though single readings scatter. Potencies of inconclusive entries are left out as doubtful fits.

test: Acumen qHTS Assay for Inhibitors of the mTORC1 Signaling Pathway in MEF (Tsc2-/-, p53-/-) Cells: Sytravon; details: phospho-rpS6 immunofluorescence/PI, 24 h; series mostly up to 38.3 µM; also: nearly all actives have a fitted effect of over 50% in size
Method in brief: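 Plate MEFs (Tsc2-/-, p53-/-, empty vector) in DMEM/10% FBS; after 24 h add compound, incubate 24 h at 37 degree Celsius; fix in PFA/TX-100, block, stain phospho-rpS6 and 10 uM PI; scan at 488 nm; report % positive cells.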
Potency is read from the fitted curve at half-maximal effect; tags tell the direction and shape of the fitted curve.

SMILES | Potency
COc1ccc(NC(=O)Nc2cc(-c3cn4cccnc4n3)ccc2OC)cc1 | inconclusive [falling, partial curve, poor fit]
COc1ccc(-c2cc3nc(C)c(CCC(=O)N4CCN(c5ccccc5F)CC4)c(C)n3n2)c(OC)c1 | inactive
CCc1ccccc1NC(=O)CSc1nnc(COc2ccccc2Cl)o1 | inconclusive [falling, single point]
CCOc1ccc(-c2cc(C(=O)NCCCOC)c3c(-c4ccc(CC)cc4)[nH]nc3n2)cc1 | inconclusive [falling, single point]
CCn1c(=O)c2sccc2n2c(CCC(=O)Nc3ccc(OC)cc3OC)nnc12 | inconclusive [falling, partial curve, poor fit]
COc1ccc(-c2nc3ccccc3s2)cc1NC(=O)c1cccc([N+](=O)[O-])c1C | inactive
O=c1c2ccccc2n(Cc2c(F)cccc2Cl)c(=O)n1Cc1ccccc1 | inconclusive [falling, single point]
CCc1ccc(OCC(=O)N(Cc2ccc(C)cc2)Cc2ccco2)cc1 | active: 4.14 µM
O=C(CSc1nccn1-c1cccc(Cl)c1)Nc1cccc(C(F)(F)F)c1 | inactive
CC1CCN(C(=O)Cn2cc(SCc3ccccc3)c3ccccc32)CC1 | inconclusive [falling, partial curve, poor fit]
COc1ccccc1CNC(=O)CCc1c(C)c2ccc(OC)c(C)c2oc1=O | inconclusive [falling, single point]
COc1ccc(CCNc2nc(-c3ccc(C)cc3)cc(C(F)F)n2)cc1OC | inactive
Cn1cnc(S(=O)(=O)N2CCCC(C(=O)NCc3ccccc3Cl)C2)c1 (configuration not stated) | inactive
Cc1cc(OCCCSc2nc(-c3ccc(C(C)(C)C)cc3)nc3cc(=O)[nH]n23)ccc1Cl | inactive
COc1ccc(Nc2cc(C)nc(-n3nc(C)cc3C)n2)cc1Cl | inconclusive [falling, full curve]
CCc1ccc(N2CCn3c2nc2c3c(=O)n(Cc3ccc(F)cc3)c(=O)n2C)cc1 | inconclusive [falling, single point]
CCC(C)NC(=O)c1sc2nc(C)c(C(=O)Nc3ccc(C)cc3C)c(-c3ccc(Cl)cc3)c2c1N (configuration not stated) | inconclusive [falling, partial curve, poor fit]
COc1ccc(Cl)cc1NC(=O)NCc1noc2ccccc12 | inconclusive [falling, single point]
COc1cc2nc(Nc3ccc(C)c(C)c3)nc(N)c2cc1OC | inconclusive [falling, partial curve, poor fit]
Cc1ccc(NS(=O)(=O)c2ccc(-c3cc(C)no3)cc2)c(C)c1 | inconclusive [falling, partial curve]
CCOc1ccc(CNCc2c(C(=O)O)n(Cc3ccccc3F)c3cc(OC)ccc23)cc1 | inactive

SMILES | Potency
COc1ccc(NC(=O)CSc2nc(-c3cccs3)cc(C(F)(F)F)n2)cc1OC | inactive
CCCCc1ccc(NC(=O)c2ccc(=O)n(Cc3cccc(C)c3)c2)cc1 | inconclusive [falling, partial curve, poor fit]
Cc1ccc(-c2c(C)n3c4c(=O)n(C)c(=O)n(C)c4nc3n2CCO)cc1 | inactive
Cc1cc2c(cc1S(=O)(=O)N1CCCCC1)OCC(=O)N2 | inconclusive [falling, partial curve, poor fit]
CC(C)(C)c1ccc(S(=O)(=O)N2CCN(Cc3noc(CCC(=O)N4CCCCC4)n3)CC2)cc1 | inactive
Cc1cc(-c2ccc(C)c(S(=O)(=O)NCC3CCN(Cc4ccc(F)cc4)CC3)c2)on1 | inconclusive [falling, single point]
CC1CCn2c(nc3cc(C(=O)NCc4ccccc4)ccc32)C1 (configuration not stated) | inconclusive [falling, partial curve, poor fit]
Cc1ccc(-c2cn(-c3cccc(Cl)c3)c(S(=O)(=O)CC(=O)Nc3cccc(C)c3)n2)cc1 | inconclusive [falling, partial curve, poor fit]
CCN(Cc1ccccc1)C(=O)c1nn(-c2ccc(OC)cc2)c(=O)c2c1c1ccccc1n2C | inactive
Cc1[nH]c2ccccc2c1C1(O)C(=O)N(Cc2ccccc2Cl)c2ccccc21 (configuration not stated) | inconclusive [falling, single point]
COc1ccccc1N1CCN(C(=O)CSc2n[nH]c(-c3ccccc3Cl)n2)CC1 | inconclusive [falling, partial curve, poor fit]
CC(C)Cn1c(=O)c2ccccc2n2c(CCC(=O)N3CCN(c4ccccc4)CC3)nnc12 | inactive
COc1ccc(Nc2cc(C)nc3c(C)c(C)ccc23)cc1 | inconclusive [falling, single point]
CCc1ccc(C2CC(=O)c3c([nH]c(C(=O)OCCOc4ccccc4)c3C)C2)cc1 (configuration not stated) | active: 5.21 µM
O=C(CSc1c2c(nc3ccc(Cl)cc13)CCCC2)N1CCN(c2cccc(Cl)c2)CC1 | inactive
Cc1cc2ncn(CCCCOc3ccccc3)c2cc1C | inconclusive [falling, single point]
CCOC(=O)c1c(C)[nH]c(CCC(=O)Nc2cc(C)ccc2OC)c1C | inconclusive [falling, partial curve, poor fit]
CCOc1ccc(N(C(=O)Cn2nnc3ccccc32)C(C(=O)NCc2ccccc2)c2ccc(OC)cc2)cc1 (configuration not stated) | inconclusive [falling, single point]
CC(=O)Nc1cccc(NC(=O)C(=O)NCCc2sc(-c3ccccc3)nc2C)c1 | inconclusive [falling, full curve]
CCc1ccc(CNC(=O)c2ccc(NC(=O)N3CCCCc4ccccc43)cc2)cc1 | inconclusive [falling, single point]
COc1ccc(NC2=C(c3ccc(C(F)(F)F)cc3)C(=O)c3ccccc32)cc1 | inconclusive [falling, partial curve, poor fit]
